# Reference: the supplement of paper PMC12582362
# Structures can show the parent of a compound that is named as a salt. Screen size: about 1,500 compounds; about 30 (2%) showed activity.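 How the source made its calls: active = robust z-score below -2; a few such results were not called.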 Some of the results follow.
# System: optoTopBP1 Flp-In 293 T-REx (HEK293) cells
# Assay: light-induced TopBP1 condensate (nuclear foci) count, plate-normalised robust z-score vs non-control wells; higher = more TopBP1 condensates (negative = condensation inhibitor), active = hit call of the paper
# Settings: 10 µM; incubation time 2 h
row,Structure (SMILES),light-induced TopBP1 condensate (z-score)
1,CN[C@H]1CC[C@@H](c2ccc(Cl)c(Cl)c2)c2ccccc21 [Sertraline],inactive: -0.889
2,Nc1ccc(S(=O)(=O)Nc2nccs2)cc1 [Sulfathiazole],inactive: 0.994
3,CC(CNC1CCCCC1)OC(=O)c1ccccc1 (stereo unspecified) [Hexylcaine hydrochloride],inactive: -0.526
4,Cc1ccc(-c2cc(C(F)(F)F)nn2-c2ccc(S(N)(=O)=O)cc2)cc1 [Celecoxib],inactive: 0.651
5,CN1CCN(CC(=O)N2c3ccccc3C(=O)Nc3cccnc32)CC1 [Pirenzepine dihydrochloride],inactive: 0.409
6,CC(=O)N(CC(O)CO)c1c(I)c(C(=O)NCC(O)CO)c(I)c(C(=O)NCC(O)CO)c1I (stereo unspecified) [Iohexol],inactive: 0.77
7,CN(CCCCCCCCCCN(C)C(=O)Oc1cccc([N+](C)(C)C)c1)C(=O)Oc1cccc([N+](C)(C)C)c1 [Demecarium bromide],inactive: -0.616
8,Cn1c(=O)c2c(ncn2CC2OCCO2)n(C)c1=O [Doxofylline],inactive: 0.565
9,CCOc1nc2cccc(C(=O)O)c2n1Cc1ccc(-c2ccccc2-c2nnn[nH]2)cc1 [Candesartan],inactive: -0.153
10,CCCCNC(=N)NC(=N)N [Buformin],inactive: 1.05
11,C[C@@](Cc1ccc(O)c(O)c1)(NN)C(=O)O [Carbidopa],inactive: -0.878
12,Nc1ncnc2c1ncn2[C@@H]1O[C@H](CO)[C@@H](O)[C@@H]1O [Vidarabine],inactive: 0.447
13,CC(=O)OC[C@H]1O[C@@H]([S-])[C@H](OC(C)=O)[C@@H](OC(C)=O)[C@@H]1OC(C)=O.CCP(CC)CC.[Au+] [Auranofin],active: -4.74
14,COc1cc(Nc2c(C#N)cnc3cc(OCCCN4CCN(C)CC4)c(OC)cc23)c(Cl)cc1Cl [Bosutinib],inactive: -2.03
15,CCCCc1oc2ccc(NS(C)(=O)=O)cc2c1C(=O)c1ccc(OCCCN(CCCC)CCCC)cc1 [Dronedarone hydrochloride],inactive: 0.151
16,CCC1(c2ccccc2)C(=O)NCNC1=O [Primidone],inactive: -0.71
17,CN(C)CCC(c1ccc(Br)cc1)c1ccccn1 (stereo unspecified) [Brompheniramine maleate],inactive: 0.824
18,c1ccc(-c2ccc(C(c3ccccc3)n3ccnc3)cc2)cc1 (stereo unspecified) [Bifonazole],inactive: -0.772
19,Oc1c(Cl)cc(Cl)c2cccnc12 [Chloroxine],inactive: -0.15
20,O=C1CC[C@@H](C(=O)N2CSC[C@H]2C(=O)O)N1 [Pidotimod],inactive: -0.575
21,O=C(c1ccc(F)cc1)C1CCN(CCn2c(=O)[nH]c3ccccc3c2=O)CC1 [Ketanserin tartrate hydrate],inactive: 0.829
22,CCN(CC)C(=O)c1ccc(O)c(OC)c1 [Ethamivan],inactive: 0.0651
23,Cc1[nH]cnc1CN1CCc2c(c3ccccc3n2C)C1=O [Alosetron hydrochloride],inactive: -1.41
24,O=C(Cn1c(=O)sc2ccc(Cl)cc21)N1CCN(CCO)CC1 [Tiaramide Hydrochloride],inactive: 0.609

row,Structure (SMILES),light-induced TopBP1 condensate (z-score)
1,Cc1cc2nc3c(=O)[nH]c(=O)nc-3n(C[C@H](O)[C@H](O)[C@H](O)CO)c2cc1C [Riboflavine],inactive: 1.04
2,CCCOc1ccc2[nH]c(NC(=O)OC)nc2c1 [Oxibendazol],active: -3.01
3,CN(C)CCOC(c1ccccc1)c1ccccc1.Cn1c(=O)c2[nH]c(Cl)nc2n(C)c1=O [Dimenhydrinate],inactive: -0.665
4,CN(CCCN1c2ccccc2CCc2ccccc21)CC(=O)c1ccc(Cl)cc1 [Lofepramine],inactive: -2.06
5,Clc1ccc2c(c1)CCc1cccnc1C2=C1CCNCC1 [Desloratadine],inactive: -1.12
6,O=C1NCC2(CCN(CCc3ccccc3)CC2)O1 [Fenspiride hydrochloride],inactive: 0.804
7,CC(=O)O[C@]1(C(C)=O)CC[C@H]2[C@@H]3C=C(Cl)C4=CC(=O)CC[C@]4(C)[C@H]3CC[C@@]21C [Chlormadinone acetate],inactive: -0.442
8,CCCNC(=O)NS(=O)(=O)c1ccc(Cl)cc1 [Chlorpropamide],inactive: 1.05
9,CCN(CC)C(C)CN1c2ccccc2Sc2ccccc21 (stereo unspecified) [Ethopropazine hydrochloride],inactive: -0.281
10,Cc1cc(O)c(C(=O)N[C@@H](C(=O)N[C@@H]2C(=O)N3C(C(=O)O)=C(CSc4nnnn4C)CS[C@H]23)c2ccc(O)cc2)cn1 [Cefpiramide],inactive: -0.119
11,CO[C@H]1/C=C/O[C@@]2(C)Oc3c(C)c(O)c4c(O)c(c5c(nc6cc(C)ccn65)c4c3C2=O)NC(=O)/C(C)=C\C=C\[C@H](C)[C@H](O)[C@@H](C)[C@@H](O)[C@@H](C)[C@H](OC(C)=O)[C@@H]1C [Rifaximin],inactive: 0.13
12,O=C1[C@H]2CCCC[C@H]2C(=O)N1CCCCN1CCN(c2nsc3ccccc23)CC1 [Perospirone],inactive: -0.904
13,Clc1cccc(Cl)c1NC1=NCCN1 [Clonidine hydrochloride],inactive: -0.77
14,Nc1nc2c(ncn2COC(CO)CO)c(=O)[nH]1 [Ganciclovir],inactive: 0.417
15,NCCCCCC(=O)O [Aminocaproic acid],inactive: -0.559
16,CN(C)C(=N)NC(=N)N [Metformin hydrochloride],inactive: -0.726
17,CC=CC(=O)N(CC)c1ccccc1C [Crotamiton],inactive: -1.09
18,CC1=C(C)C(=O)C(C(CCCCCC(=O)O)c2ccccc2)=C(C)C1=O (stereo unspecified) [Seratrodast],inactive: -1.1
19,CNCCc1ccccn1 [Betahistine mesylate],inactive: 0.27
20,Nc1ccc(C(=O)O)c(O)c1 [4-aminosalicylic acid],inactive: 0.727
21,O=C1Nc2ccc(Cl)cc2[C@@](C#CC2CC2)(C(F)(F)F)O1 [Efavirenz],inactive: 0.0551
22,CC[N+](C)(CC)CCC[n+]1c(-c2ccccc2)c2cc(N)ccc2c2ccc(N)cc21 [Propidium iodide],active: -3.58
23,O=C(O)c1ccccc1Nc1cccc(C(F)(F)F)c1 [Flufenamic acid],inactive: -0.164
24,Clc1ccc(C(c2ccccc2Cl)C(Cl)Cl)cc1 (stereo unspecified) [Mitotane],inactive: 0.00706

row,Structure (SMILES),light-induced TopBP1 condensate (z-score)
1,O=C1O[C@H]([C@@H](O)CO)C(O)=C1O [Ascorbic acid],inactive: -0.0853
2,Cc1cccc(C)c1OCC(=O)N[C@@H](Cc1ccccc1)[C@@H](O)C[C@H](Cc1ccccc1)NC(=O)[C@H](C(C)C)N1CCCNC1=O [Lopinavir],inactive: 0.599
3,Nc1ccc(/N=N/c2ccccc2)c(N)n1 [Phenazopyridine hydrochloride],inactive: -0.255
4,CN(C)CCOC(=O)C(c1ccccc1)C1(O)CCCC1 (stereo unspecified) [Cyclopentolate hydrochloride],inactive: 0.437
5,CCC(=O)O[C@]1(C(=O)SCF)[C@H](C)C[C@H]2[C@@H]3C[C@H](F)C4=CC(=O)C=C[C@]4(C)[C@@]3(F)[C@@H](O)C[C@@]21C [Fluticasone propionate],inactive: -0.0165
6,OCCN1CCN(CC/C=C2/c3ccccc3Sc3ccc(Cl)cc32)CC1 [Zuclopenthixol dihydrochloride],inactive: -0.966
7,Nc1nc(/C(=C/CC(=O)O)C(=O)N[C@@H]2C(=O)N3C(C(=O)O)=CCS[C@H]23)cs1 [Ceftibuten],inactive: -1.27
8,CCc1nn(CCCN2CCN(c3cccc(Cl)c3)CC2)c(=O)n1CCOc1ccccc1 [Nefazodone hydrochloride],inactive: -0.145
9,CCCNC(C)(C)COC(=O)c1ccccc1 [Meprylcaine hydrochloride],inactive: 0.755
10,CC(NCCc1ccc(O)cc1)C(O)c1ccc(O)cc1 (stereo unspecified) [Ritodrine hydrochloride],inactive: 1.34
11,C[N+](C)(CCOc1ccccc1)Cc1ccccc1.O=C([O-])c1cc2ccccc2cc1O [Bephenium hydroxynaphthoate],inactive: -0.589
12,CCC1(C)CC(=O)NC1=O (stereo unspecified) [Ethosuximide],inactive: 0.0465
13,NC1CCN(c2c(F)cc3c(=O)c(C(=O)O)cn(C4CC4)c3c2Cl)C1 (stereo unspecified) [Clinafloxacin],inactive: -0.309
14,O=[N+]([O-])c1ccc(O)c2ncccc12 [Nitroxoline],inactive: 0.749
15,CCCc1nn(C)c2c(=O)[nH]c(-c3cc(S(=O)(=O)N4CCN(C)CC4)ccc3OCC)nc12 [Sildenafil],inactive: -0.947
16,CC(=O)Oc1ccc(C(c2ccc(OC(C)=O)cc2)c2ccccn2)cc1 [Bisacodyl],inactive: 0.512
17,CCOC(=O)CC(=O)N1CCSC1COc1ccccc1OC (stereo unspecified) [Moguisteine],inactive: 0.754
18,O=C(O)CCC(=O)c1ccc(-c2ccccc2)cc1 [Fenbufen],inactive: 0.416
19,CN1CCN2c3ccccc3Cc3ccccc3C2C1 (stereo unspecified) [Mianserine hydrochloride],inactive: 0.926
20,CCCCc1ncc(/C=C(\Cc2cccs2)C(=O)O)n1Cc1ccc(C(=O)O)cc1 [Eprosartan mesylate],inactive: -0.194
21,N[C@@H](Cc1ccc(O)c(O)c1)C(=O)O [Levodopa],inactive: 1.84
22,O=C(NC(Cc1cc(=O)[nH]c2ccccc12)C(=O)O)c1ccc(Cl)cc1 (stereo unspecified) [Rebamipide],inactive: 0.803
23,C[N+](C)(C)CCOC(N)=O [Carbachol],inactive: -0.457
